This note sets out measurements from PMC7819943, “Rice protein-binding microarrays: a tool to detect cis-acting elements near promoter regions in rice”.

The other results are listed elsewhere or left out.

This assay addresses T1, OsWOX13 (Oryza sativa, UniProt Q5QMM3 1-267).
T1 sequence: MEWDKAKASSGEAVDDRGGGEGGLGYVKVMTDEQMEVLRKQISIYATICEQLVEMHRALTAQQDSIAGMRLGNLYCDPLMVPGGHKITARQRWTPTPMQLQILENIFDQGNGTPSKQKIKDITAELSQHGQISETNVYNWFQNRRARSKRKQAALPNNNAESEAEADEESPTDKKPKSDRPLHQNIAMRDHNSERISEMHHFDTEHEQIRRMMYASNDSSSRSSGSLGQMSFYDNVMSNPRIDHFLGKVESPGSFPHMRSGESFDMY
Put plainly: protein-binding microarray (RPBM); PBS, 2% BSA, 51.3 ng/ul salmon testes DNA, 50 uM zinc acetate, 200 nM TF, 25 C, 1 h; high values mean tight binding. As to conditions: protein: recombinant; tags: N-terminal polyhistidine and DsRed monomer fusion (pET32a); label: CyDye5-dUTP incorporated in the synthesized complementary strand; 3' TTTTT single-stranded linker to array surface; dsDNA, one strand shown. Put shortly: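 Binding signal here means per-feature fluorescence intensity in arbitrary units. The values were read on an Axon 4000B scanner after a custom Agilent array, double-stranded by primer extension with Cy5-dUTP, was incubated with 200 nM protein at 25 °C for 1 h in PBS with 2% BSA, salmon testes DNA and 50 µM zinc acetate, then washed. The proteins were transcription factors with an N-terminal polyhistidine tag and DsRed, expressed in E. coli BL21-CodonPlus and purified on Ni–NTA.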
For the sequence “CCTAGATCTAATTGGGTAATAGTTTTACATTTATTGGTTTCGGAGTCACCTAGTGCAG”, the binding signal was 17500 fluorescence intensity (a.u.).

Regarding “TTTTCAAATTTTAGTATACTGATTTATGTTTGCATACAGTCGGAGTCACCTAGTGCAG”, the binding signal is 9360 fluorescence intensity (a.u.). For “GAGCAAATTGCAAAAGCAAAGAATAAAATGAAATATCGGGCGGAGTCACCTAGTGCAG”, the binding signal is 3970 fluorescence intensity (a.u.).

Consider “GTGTCTCAGTCAACATCAATTGATTGATCAATATAACAACCGGAGTCACCTAGTGCAG”, for which the binding signal was 39900 fluorescence intensity (a.u.).

In the case of “CAAATTAATGAGGGTAAATTGGTCAGTTTTAGTAGACATTCGGAGTCACCTAGTGCAG”, the binding signal was 30100 fluorescence intensity (a.u.). “AAATAAGATTGACAATTAAAGTTGGAAACGAAAACTAATGCGGAGTCACCTAGTGCAG”: the binding signal was 47500 fluorescence intensity (a.u.). The result for “GCTAACTTTTCAATCTCTGTGACCGTTTGATTTATTGTCTCGGAGTCACCTAGTGCAG” reads 23000 fluorescence intensity (a.u.); that for “AGACTAGACAAAATTGAAGGCCATAATATGGTACAGCCTCCGGAGTCACCTAGTGCAG”, 4660 fluorescence intensity (a.u.); that for “GCACTATCAATCTAGAGATAGGTCATGTCCAAATTCGTAGCGGAGTCACCTAGTGCAG”, 4380 fluorescence intensity (a.u.).

On to “CCAAGAAAATGCCATGATTGATGTCGGGGTGTAAGAGATGCGGAGTCACCTAGTGCAG”, for which the binding signal was 28600 fluorescence intensity (a.u.). The value for “GCTTGTTTGTTGTGATTAGTACTAATGGGTAAGAATGTTCCGGAGTCACCTAGTGCAG” was 18800 fluorescence intensity (a.u.). The value for “ACAGTAATGTGCACAAATTGCCAAAAGAATTTATGCATGCCGGAGTCACCTAGTGCAG” was 14700 fluorescence intensity (a.u.).

Consider “TTCTCTTTAATTCGACACTAATCAAGTTATTTGCTGCGACCGGAGTCACCTAGTGCAG”, for which the binding signal is 5600 fluorescence intensity (a.u.). Consider “GTTTGATTGGAGCAATGTCTCAATGGGTGAGAAGATGAGGCGGAGTCACCTAGTGCAG”, for which the binding signal is 54300 fluorescence intensity (a.u.).

In the case of “GAAAATTGATTTATTTTGATCACAGAGAGAGAGAGAGGGTCGGAGTCACCTAGTGCAG”, the binding signal is 49200 fluorescence intensity (a.u.).

“TGTTGGATTTGATTGCAATCTCACACTCTCACAGGGTCACCGGAGTCACCTAGTGCAG”: the binding signal was 31300 fluorescence intensity (a.u.). The value for “TTTTAGTTTTCCTCGATTAATTAATACTGTCTTTAAATCTCGGAGTCACCTAGTGCAG” was 4760 fluorescence intensity (a.u.); that for “CTTTAATTACTAACAAATTATGGATTTCGAGCCCTGCTCTCGGAGTCACCTAGTGCAG” was 43100 fluorescence intensity (a.u.); that for “TGCTATGATTTAGTAGTCATTGAGACTTATATTCCTCATACGGAGTCACCTAGTGCAG” was 6670 fluorescence intensity (a.u.). The value for “ACGGTGATTGATCGTAAGGAAATTTCCACTTTGCCAAACACGGAGTCACCTAGTGCAG” was 27700 fluorescence intensity (a.u.). As to “TCTATAAATTAATTGGCCACAGAATCAGTGATATATCTAGCGGAGTCACCTAGTGCAG”, the binding signal was 47300 fluorescence intensity (a.u.). The result for “GTCTTCAATCAGTTACACAATATAATTTCTTACCAACCGACGGAGTCACCTAGTGCAG” reads 25800 fluorescence intensity (a.u.); that for “ACTAAATTTAGGCTGTATGTATCAGTTATTTCTTCCAGATCGGAGTCACCTAGTGCAG”, 11500 fluorescence intensity (a.u.).

Turning to “TCTTAGTAATGATTATGGTCTTCAGCCTAGGCAGCCTTCCCGGAGTCACCTAGTGCAG”, the binding signal was 3880 fluorescence intensity (a.u.). The result for “CCTAATTAACATACCCATGCAACAGCCCCATGGAGCAGGACGGAGTCACCTAGTGCAG” reads 32200 fluorescence intensity (a.u.); that for “TAAATGGATGATTAGTATAATCACTTATCGTTGATCTGTGCGGAGTCACCTAGTGCAG”, 36100 fluorescence intensity (a.u.). The value for “GTCAGTAATCAAGTTTATACGTATAAAATGCATGCACAAACGGAGTCACCTAGTGCAG” was 3340 fluorescence intensity (a.u.); that for “GGTTGATTGGATGAGAGTGAATAAAATAAATATTTATGTTCGGAGTCACCTAGTGCAG” was 45800 fluorescence intensity (a.u.); that for “TTTTATAAACTTGATCAAATTTGAATAAATTTGACTAGAACGGAGTCACCTAGTGCAG” was 4500 fluorescence intensity (a.u.).

As to “TTGCAGGCAATCTTGATAAATTAATTGCTCTACTTTAGAGCGGAGTCACCTAGTGCAG”, the binding signal was 14400 fluorescence intensity (a.u.). The result for “AAAATATAGCAAATTAGACATAACATGTAACACGAATCTGCGGAGTCACCTAGTGCAG” reads 5090 fluorescence intensity (a.u.); that for “TTAATTGATTTAGTTGGTGACCTTATATCTTGTTTAGATACGGAGTCACCTAGTGCAG”, 60600 fluorescence intensity (a.u.); that for “GAGTGGTGGAGGGTTGTGATTGGATGAGTAGTGGAGGTAGCGGAGTCACCTAGTGCAG”, 5190 fluorescence intensity (a.u.). The value for “ATTTAAAGTTTTAATTTGTGATCATACGTGACAAACAGCGCGGAGTCACCTAGTGCAG” was 5790 fluorescence intensity (a.u.). The value for “ATGGCAGTTAATTTGATGTAAATTGCAACATTTCAAAAGCCGGAGTCACCTAGTGCAG” was 24900 fluorescence intensity (a.u.); that for “AAAATAGATAATTTTATGACGGTGTTACCCCTGCAATTGCCGGAGTCACCTAGTGCAG” was 17300 fluorescence intensity (a.u.).

For the sequence “ATCGGCATGTTCACCAGCTCTGATTGGTAGTACGATTTTACGGAGTCACCTAGTGCAG”, the binding signal is 5140 fluorescence intensity (a.u.). For “TACTAAGGAGTGATTAATTTGAGGCTATTCTTCCATGTCTCGGAGTCACCTAGTGCAG”, the binding signal was 4050 fluorescence intensity (a.u.).

Turning to “TTGTTTATTTATGCTTAGATTGTTGATTCCATCCTTGTGGCGGAGTCACCTAGTGCAG”, the binding signal is 5690 fluorescence intensity (a.u.). The result for “TAGCATATTGATTGAAAACCCGTTCCCATGCAATGTGGCACGGAGTCACCTAGTGCAG” reads 48600 fluorescence intensity (a.u.); that for “TTTACATGACTGAATGATGCTTTGTAGTATGATGCAGAGACGGAGTCACCTAGTGCAG”, 5450 fluorescence intensity (a.u.); that for “GGGGATTGGTTTGGTGTGGGTGTTTTGTGTGGGGATTGATCGGAGTCACCTAGTGCAG”, 11500 fluorescence intensity (a.u.).

Turning to “TATGTCGAAATTAATTGAGATTTGAATAAAAGTGGGTTTTCGGAGTCACCTAGTGCAG”, the binding signal was 23300 fluorescence intensity (a.u.). The value for “TCAAAACTGAATTATCTTTGCGTGTGTGTTTGATCTATTTCGGAGTCACCTAGTGCAG” was 3720 fluorescence intensity (a.u.); that for “AAGGGATTGATGATCTTGTACATAAGGAATACAAAGATCCCGGAGTCACCTAGTGCAG” was 16500 fluorescence intensity (a.u.); that for “ATGATTTGATTGGTCAGGACATTATTATCTTGGTCGTACTCGGAGTCACCTAGTGCAG” was 37500 fluorescence intensity (a.u.). “GCTCACTAATTTTATTCTGTATTCTTTGAAGGGTGTCAGCCGGAGTCACCTAGTGCAG”: the binding signal is 9160 fluorescence intensity (a.u.). The result for “ACCGAGTAAATTGTTTACTATCGACAGTTACACGTTACCACGGAGTCACCTAGTGCAG” reads 6300 fluorescence intensity (a.u.); that for “TTTCTAATTACTATACTTTACTACTCGAGTTGGTTGTGCACGGAGTCACCTAGTGCAG”, 19400 fluorescence intensity (a.u.); that for “CCCCTGATGAAGCAAATCAGATTGATTGGTCCACAACAAGCGGAGTCACCTAGTGCAG”, 52100 fluorescence intensity (a.u.). The result for “TGAAACTGATTTTAAGGGCATCCGTGAATCGATTCTTCAGCGGAGTCACCTAGTGCAG” reads 9080 fluorescence intensity (a.u.); that for “GACCACTAATTAAGTTACTGGCTAGTAGCTTAGCTACTGACGGAGTCACCTAGTGCAG”, 13200 fluorescence intensity (a.u.); that for “ATAATAGTTTAGATTAAACCAATAAACAGATAAAATCCATCGGAGTCACCTAGTGCAG”, 4340 fluorescence intensity (a.u.). The value for “CTTAAATAGGAAATGTTGCCGGTGACTGTAACATATCGATCGGAGTCACCTAGTGCAG” was 7330 fluorescence intensity (a.u.).
